Reference: paper PMC12040169 (PLOS Biology, 2025)
The list shows a part of the results.

tested on: T1, C. trachomatis L2/434/Bu expressing GFP (CTL2-GFP); set-up: species or system HeLa; C. trachomatis total inclusion area by high-content imaging, normalised to DMSO; settings: total inclusion area; 28.5 h, 10 µM; inhibitor
T1 construct: L2/434/Bu GFP intracellular growth in HeLa cells
Summary of the method: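 After bulk GFP and resorufin fluorescence reads, cells were fixed, stained with Hoechst and imaged by high-content microscopy. Inclusion area and number (GFP) stood in for chlamydial growth, nuclei count (Hoechst) for host cell viability. MICs were derived as for the bulk readout.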

Row | SMILES | % of control remaining
1 | C(=C\c1ccccc1)/CN1CCC(Cc2ccccc2)CC1 [CBK126384] | 104.065
2 | CSc1cccc(NC(=S)N2CCCCC2CCN2CCOCC2)c1 (stereo not drawn) [CBK028765] | 24.657
3 | Cc1ccc(C(=O)NCc2cccnc2)c(N2CCOCC2)n1 [CBK076400] | 97.3539
4 | CCOC(=O)c1cn(CC)c2cc(N3CCOCC3)c(F)cc2c1=O [CBK307142] | 93.9785
5 | COc1ccc(Nc2n[nH]c3nc(C)cc(=O)n23)cc1 [CBK288117] | 92.5473
6 | CC(Sc1nc(-c2ccccc2F)n[nH]1)C(=O)N1CCNC1=O (stereo not drawn) [CBK295594] | 118.731
7 | CSc1nc2n(n1)C(C)C1=C(CCCC1=O)N2 (stereo not drawn) [CBK288169] | 86.282
8 | COc1ccc(Cc2nc(C3CC3)n(CC(F)(F)F)n2)cc1 [CBK307686] | 43.8128
9 | CCCN1C(=O)c2ccc(C(=O)Nc3cc(C(=O)O)cc(C(=O)O)c3)cc2C1=O [CBK266441] | 117.713
10 | CC(C)c1csc(NC(=O)CC2CCN(C(=O)CC3CCCCC3)CC2)n1 [CBK285963] | 114.367
11 | CCCCCOc1ccc(Nc2cc(-c3ccccc3N(C)C)ncn2)cc1 [CBK090890] | 64.2843
12 | COc1ccc(N2CCN(c3cc(-c4cccc5ccccc45)ncn3)CC2)cc1OC [CBK091022] | 16.1322
13 | COc1ccc(-c2nc(C3CCNCC3)n3ccccc23)cc1 [CBK035971] | 84.1489
14 | O=C(Nc1sc2c(c1C(=O)NCC1CCCO1)CCCC2)c1ccccc1[N+](=O)[O-] (stereo not drawn) [CBK264608] | 100.51
15 | Cc1ccc(-c2csc3ncnc(Cl)c23)cc1 [CBK287765] | 34.1609
16 | Cc1cc(C(C)(C)C)oc1C(=O)N1CCn2c(nnc2C2CC2)C1 [CBK283771] | 93.5416
17 | O=C(Nc1ccccc1C(F)(F)F)N1CCN(c2ccccc2Cl)CC1 [CBK045081] | 96.9567
18 | Cc1c(C(=O)NCc2cc(C3CC3)[nH]n2)[nH]c2c(Cl)cccc12 [CBK282533] | 123.577
19 | Nc1csc(C2CCOCC2)n1 [CBK019258] | 94.5066
20 | CCc1cccc(NC(=O)CCc2ccccc2)c1 [CBK263637] | 72.2663
21 | COc1ccc(S(=O)(=O)Nc2nccnc2-c2ccc(CN3C(=O)CCC3=O)cc2)cc1 [CBK050699] | 75.266

Row | SMILES | % of control remaining
22 | OC1(c2cccnc2F)CCN(Cc2cccc(F)c2F)CC1 [CBK284375] | 69.7826
23 | Cc1nc2n(n1)C1=CC(C)(C)CC(=O)C1=NN2 [CBK019050] | 78.674
24 | O=C(Cc1cc(Cl)ccc1C(F)(F)F)Nc1ccc2ncccc2c1 [CBK159802] | 104.224
25 | CC(Sc1nc(-c2cccnc2)ccc1C#N)C(=O)O (stereo not drawn) [CBK267452] | 116.956
26 | CN(C)/C=N/c1nc(=O)n([C@H]2CC(O)[C@@H](CO)O2)cc1/C=C/C(=O)NCCCCCCNC(=O)C(F)(F)F (stereo partly drawn) [CBK201330] | 92.0153
27 | Cc1noc(C)c1NC(=O)c1nccc2ccccc12 [CBK200310] | 88.1127
28 | Cc1cc(C)nc(Nc2n[nH]c(COc3ccccc3)n2)n1 [CBK268016] | 105.451
29 | Cc1ccc(Nc2nc(N(C)C)nc3[nH]ncc23)cc1 [CBK288098] | 92.5966
30 | N#Cc1ccccc1CSc1nc(N2CCOCC2)nc(N2CCOCC2)n1 [CBK268998] | 115.742
31 | Cc1cc(C)n(-c2nc3ccccc3nc2N2CCN(S(=O)(=O)c3ccc4ccccc4c3)CC2)n1 [CBK269134] | 89.5949
32 | Cc1ccc(-c2cc(C(=O)NCc3cccnc3)c3ccccc3n2)cc1C [CBK265402] | 113.659
33 | COc1cc(C(=O)NC(C)C(=O)NN)cc(OC)c1OC (stereo not drawn) [CBK262609] | 109.237
34 | COc1cc(Nc2cc(-n3nc(C)cc3C)ncn2)cc(OC)c1OC [CBK288594] | 101.33
35 | CCOC(=O)CSC/C(=N/Nc1ccccc1)c1cccs1 [CBK006956] | 76.5641
36 | O=C(c1ccco1)N1CCC[C@@H]1[C@@H](O)c1cccs1 [CBK284291] | 78.5718
37 | CC1CCN(Cc2c(O)ccc3c(=O)c(-c4cccc(Cl)c4)c(C(F)(F)F)oc23)CC1 [CBK266258] | 154.197
38 | N#Cc1ccccc1CSc1nnc(-c2ccco2)n1-c1ccccc1 [CBK267270] | 86.7834
39 | COc1ccc(C(=O)N2CC[C@@H]3NC(=O)[C@H]4C[C@H](NC(=O)C5CCC5)CN4C(=O)[C@H]32)cc1 [CBK289268] | 87.5478
40 | Cc1ccsc1C(=O)Nc1ncn(CC(=O)N2CCCCCC2)n1 [CBK304192] | 19.1821
41 | O=C(Cn1cc(Br)ccc1=O)NC1CCN(Cc2ccccn2)CC1 [CBK305686] | 80.9483
42 | CNC(=O)C1(Cc2ccccc2-c2ccccc2C)CCN(C(=O)Cc2ccccc2)CC1 [CBK285901] | 96.2499

Row | SMILES | % of control remaining
43 | COc1cc(C2(O)CCN(Cc3ccccc3)C2)ccc1OCc1ccccc1 (stereo not drawn) [CBK045620] | 54.0808
44 | N#CC(C(N)=O)C(c1ccc(Br)cc1)c1c(-c2ccccc2)nn(-c2nc(-c3ccccc3)cs2)c1O (stereo not drawn) [CBK262697] | 87.7811
45 | C=CCOCc1cc(O)n2nc(SC)c(C(N)=O)c2n1 [CBK008592] | 85.9643
46 | CN1CCN(CCC(=O)N/N=C/c2ccc(O)cc2O)CC1 [CBK262849] | 70.1405
47 | CC(=O)Nc1cccc(C(=O)N2CCCC2c2ccncc2)c1 (stereo not drawn) [CBK305080] | 75.1318
48 | OC(COCc1ccc2c(c1)OCO2)CN1CCN(c2ccccn2)CC1 (stereo not drawn) [CBK278246C] | 102.37
49 | O=C1NC[C@@H](CCC(=O)N2CCCCC2)N2C[C@@H](NS(=O)(=O)c3ccccc3)C[C@@H]12 [CBK289012] | 103.957
50 | C[C@@H]1CN(C)CCN1c1nccnc1OCCOc1cccnc1OCCCCCN(C)C [CBK051566] | 63.6006
51 | O=c1[nH]c2ncc(-c3ccco3)nc2n1Cc1ccccn1 [CBK064349] | 103.33
52 | CCOC(=O)c1ccc(-n2sc3ccccc3c2=O)cc1 [CBK115552] | 94.0178
53 | Cn1c(=O)n(C)c2cc(CNC(=O)C3NCCc4[nH]cnc43)ccc21 (stereo not drawn) [CBK307274] | 77.9794
54 | CC(Oc1ccccc1)c1nnc(SCC(=O)Nc2ccc(Br)cc2F)n1C (stereo not drawn) [CBK266364] | 91.7178
55 | CCCC(=O)c1ccc(S(=O)(=O)N2CCCN(Cc3cccnc3N3CCOCC3)CC2)cc1 [CBK062900] | 73.2123
56 | CCn1c(C)nnc1SCCNc1cc(C)nc2ccnn12 [CBK306607] | 62.5598
57 | COc1ccc(C(=O)C2=C(O)C(=O)N(CCN(C)C)C2c2cccc([N+](=O)[O-])c2)cc1Cl (stereo not drawn) [CBK266474] | 104.382
58 | c1ccc2c(c1)CCN2c1ncnc2c1nc1n2CCCCC1 [CBK291119] | 105.001
59 | CCN1CCN(C(=O)C2CCCCC2C(=O)O)CC1 (stereo not drawn) [CBK270337] | 82.7529
60 | COc1ccc(Oc2ncnc3c2[nH]c2ccccc23)cc1 [CBK291254] | 87.8306
61 | O=C(NCc1cccs1)C1CCCN1c1nc(O)cc(C(F)(F)F)n1 (stereo not drawn) [CBK004299] | 93.7172
62 | Cn1cc(NC(=O)CCn2c(C(F)F)cc3cccnc32)cn1 [CBK284740] | 102.132
63 | COC(=O)[C@@H]1Cc2ncn(C)c2CN1S(=O)(=O)c1ccc(C#N)cc1 [CBK288993] | 111.642

Row | SMILES | % of control remaining
64 | O=C(CC1SC(NC2CCCCCC2)=NC1=O)NCc1c(F)cccc1Cl (stereo not drawn) [CBK067656] | 79.6313
65 | Cn1c(SCC(=O)NCCCN2CCOCC2)nc2ccccc2c1=O [CBK287607] | 115.748
66 | CCOc1cc(O)c(-c2nc(N)ncc2-c2ccc3c(c2)OCCO3)cc1CC [CBK288174] | 125.17
67 | C[C@@H]1CNCCN1c1cc(C(F)(F)F)cc(OCc2ccccc2)n1 [CBK026755] | 48.6459
68 | CCNCCNc1ccc([N+](=O)[O-])cc1 [CBK264179C] | 119.579
69 | Cc1noc(C)c1NC(=O)c1cncnc1 [CBK200382] | 98.6111
70 | O=C1CSC(c2cccc(Cl)c2Cl)N1C1CCCCC1 (stereo not drawn) [CBK020678] | 79.3857
71 | CN(C)CCN(C)c1ccc(-c2cc3ccccc3o2)cn1 [CBK036820] | 72.153
72 | Nc1cc(O)nc(SCC(=O)N2CCN(C(c3ccccc3)c3ccccc3)CC2)n1 [CBK268014] | 96.0219
73 | O=C(O)CCn1c2ccc(Cl)cc2c2cc(Cl)ccc21 [CBK261415] | 116.36
74 | CN1CCN(C2c3ccccc3Oc3ccccc32)CC1 [CBK066891] | 111.166
75 | Cc1oc2ccc(O)cc2c1C(=O)N(C)C(C)Cc1ccccn1 (stereo not drawn) [CBK282627] | 106.227
76 | OCc1ccc(-c2nccnc2NCCc2c[nH]c3ccccc23)cc1 [CBK038004] | 141.115
77 | O=C(O)c1cccc(-c2cncc(NCc3ccncc3)n2)c1 [CBK037915] | 85.9815
78 | O=c1oc2ccccc2c2nc(-c3ccncc3)ncc12 [CBK288536] | 84.9803
79 | Cc1[nH]c2ccccc2c1/C=C1/C(=N)N2C(SCc3ccccc3)=NSC2=NC1=O [CBK265291] | 105.086
80 | S=c1[nH]nc(Cn2ccc(-c3ccccc3)n2)o1 [CBK022019] | 72.4018
81 | O=C1/C(=N\Nc2ccc([N+](=O)[O-])cc2[N+](=O)[O-])c2ccccc2N1CN1CCCCC1 [CBK260926] | 92.2267
